The whole screen tested about 52,000 compounds, of which about 4,300 (8.3%) were called active. Rule as the data show it: active = survival mostly below about 52% (no sharp cut-off); inactive = mostly above about 56%. Some of the results follow.

Here are results for 58 compounds from PubChem BioAssay AID463173 (ICCB-Longwood Screening Facility, Harvard Medical School, 2010).

For the assay, the system named is DeltatarO mutant. Nature of the assay: growth inhibition of S. aureus wild type versus tarO mutant, primary screen, teichoic acid synthesis inhibitors, RN4220, OD600 (AID 463173). The conditions noted are these: OD600, 18 h, stronger effect = lower value, screened at 18.75 µg/mL (by protocol).
Regarding `COc1ccc(CN(C(=O)Nc2ccc(C)c(F)c2)C2CCN(C(C)=O)CC2)cc1`, the survival was inactive: 89%. The result for `CCSc1nnc(-c2ccc(S(=O)(=O)N3CCOCC3)cc2)n1C` reads inactive: 83%; that for `COc1ccc(Cl)cc1Nc1ncnc2c1nc1n2CCCC1`, inactive: 88%; that for `O=C(CCS(=O)(=O)c1cc2c3c(c1)CCN3C(=O)CC2)NCc1ccc(F)cc1`, inactive: 91%. Turning to `CC(C)c1ccc(NC(=O)C2CCCN(S(=O)(=O)c3cccc4nonc34)C2)cc1` (stereo not drawn), the survival was inactive: 82%.

For the compound `O=C(Nc1noc2ccccc12)c1cccc(F)c1`, the survival was inactive: 95%.

Take `CCc1ccc(NC(=O)C2CCCN(S(=O)(=O)c3c(C)[nH]c(=O)[nH]c3=O)C2)cc1` (stereo not drawn): the survival was inactive: 83%. The result for `CC(C)c1ccc(NS(=O)(=O)c2ccc3[nH]c(=O)ccc3c2)cc1` reads inactive: 83%; that for `CCOC(=O)Cc1nnc2c(Nc3ccccc3OC)nc3nonc3n12`, inactive: 99%. For the compound `Cc1cc(C)c(NC(=O)Cn2c(=O)n(CCC(=O)NCc3ccc4c(c3)OCO4)c(=O)c3ccccc32)c(C)c1`, the survival was inactive: 94%.

For the compound `CCOc1ccc(S(=O)(=O)Nc2ccc3c(c2)c(C(C)=O)c(C)n3S(=O)(=O)c2ccc(OCC)cc2)cc1`, the survival is inactive: 67%.

With `CCOC(=O)C1CCN(C(=O)CSc2c3c(nc4ccc(Cl)cc24)CCCC3)CC1`, the survival is active: 39%.

Consider `CC(=O)Nc1ccc(C(=O)CSc2nnc3cc(C)c4ccccc4n23)cc1`, for which the survival is inactive: 82%. For `Cc1ccc(NC(=O)c2sc3nc(-c4ccc(F)cc4)cn3c2C)c(C)c1` the value was inactive: 81%; for `COc1ccc(CCC(=O)NC2CC(=O)N(c3ccc(C)c(C)c3)C2)cc1` (stereo not drawn), inactive: 93%; for `Cc1ccc(CNC(=O)c2ccc(-c3nc(CN4CCc5ccccc54)c(C)o3)cc2)cc1`, inactive: 84%. For `COc1ccc(-c2cc(C(=O)NCC(=O)O)c(C)o2)cc1OC`, the survival was inactive: 86%.

As to `O=C(NCc1ccc(Cl)cc1)C(=O)NCC(c1ccco1)S(=O)(=O)c1cccs1` (stereo not drawn), the survival is inactive: 95%. The result for `O=c1c2ccccc2n2c(-c3ccc(F)c(F)c3)nnc2n1CCc1ccccc1` reads inactive: 91%; that for `Cc1cc(C)c(NC(=O)CSc2nnc3[nH]c(=O)cc(C)n23)c(C)c1`, inactive: 93%.

Regarding `CCNc1nc(NC(C)C)nc(NC(N)NOC)n1` (stereo not drawn), the survival is inactive: 101%. The result for `CCC(=O)Nc1ccc2nc(SCC(=O)N3CCc4ccccc43)sc2c1` reads inactive: 73%; that for `CCOC(=O)c1ccccc1NC1(c2ccc(OC)cc2)C(=O)c2ccccc2C1=O`, inactive: 74%; that for `CCOC(=O)c1c(S(=O)(=O)N2CCCC(C(=O)Nc3ccc(C)cc3C)C2)c(C)n(CC)c1C` (stereo not drawn), inactive: 94%.

Turning to `COC(=O)c1ccc(C2c3c(oc4cc(C)c(C)cc4c3=O)C(=O)N2c2ccccn2)cc1` (stereo not drawn), the survival is inactive: 81%. For `C/C(=N\OCCN1CCCCC1)C1COc2ccccc2O1` (stereo not drawn) the value was inactive: 97%. For `COc1ccc(C2NC(=O)NC(C)=C2C(=O)Nc2cc(C)cc(C)c2)c(OC)c1` (stereo not drawn) the value was inactive: 46%; for `Cc1ccccc1CNC(=O)CCCn1nc(C)c2sc3ccccc3c2c1=O`, inactive: 83%. The result for `CCc1c(C)nc2nncn2c1Nc1ccc(C)c(F)c1` reads inactive: 73%; that for `CC(=O)Nc1ccc(Nc2cc(C)nc3ccccc23)cc1`, inactive: 120%; that for `CCCS(=O)(=O)NCCc1csc2nc(-c3ccc(OC)cc3)nn12`, inactive: 67%. `CN(Cc1ccccc1)c1ncnc2c1nc1n2CCCC1`: the survival was inactive: 65%. For `O=C(Cn1nnc2sc3c(c2c1=O)CCCC3)Nc1ccc(F)c(Cl)c1` the value was active: 36%; for `COc1cccc(NC(CNS(=O)(=O)c2ccc(C)cc2)c2ccccc2)c1` (stereo not drawn), inactive: 70%; for `CCN1C(=O)c2ccccc2Sc2ccc(NC(=O)c3ccc(C)c(F)c3)cc21`, inactive: 77%. For `Cc1ccc2c(CC(=O)Nc3cc(C(F)(F)F)ccc3Cl)coc2c1C`, the survival is inactive: 91%. For `CCC12CN3CC(CC)(CN(C1)C3c1ccc(OCc3ccccc3)cc1)C2=O` (stereo not drawn) the value was inactive: 92%; for `Cc1ccc2oc(=O)n(CCNC(=O)Nc3ccccc3Cl)c2c1`, inactive: 72%.

For `COc1ccc(C2CC(=O)Nc3c2c(=O)nc2c(C)cccn32)cc1` (stereo not drawn), the survival was inactive: 67%. The result for `COc1ccc2oc(=O)c(C(=O)N3CCC(C(N)=O)CC3)cc2c1` reads inactive: 79%; that for `CCOC(=O)c1c(C)[nH]c(C)c1S(=O)(=O)N1CCC(C(=O)Nc2ccccn2)CC1`, inactive: 90%. The result for `CCCCOc1cccc(C(=O)Nc2cccc3ccc(C)nc23)c1` reads inactive: 75%; that for `COc1cccc(C(=O)Nc2nnc(S(=O)(=O)N3CCOCC3)s2)c1`, inactive: 69%; that for `COc1cc(OC)cc(C(=O)Nc2ccc3nc(N4CCC(C)CC4)cc(C)c3c2)c1`, inactive: 51%. For `Cc1ccc(CS(=O)(=O)Cc2ccc(C(=O)NCCc3ccc(Cl)cc3)o2)cc1`, the survival is inactive: 84%.

For the compound `Cc1cccc(NC(=O)CSc2nc3c(oc4ccccc43)c(=O)n2C(C)C)c1`, the survival is inactive: 63%. For `COc1ccc(N2CCN(C(c3ccccc3)c3nnc(-c4ccccc4Cl)o3)CC2)cc1` (stereo not drawn) the value was inactive: 49%.

Turning to `COc1cccc(CNC(=O)Cn2ncc3c4ccccc4n(C)c3c2=O)c1`, the survival was inactive: 74%. For `COCCNC(=O)CCCn1c(SCC(=O)Nc2cccc(C)c2)nc2c(sc3ccccc32)c1=O` the value was inactive: 90%; for `CC1=C(C(=O)NCCc2ccc(Cl)cc2)C2(CCCCC2)OC1=O`, inactive: 80%; for `O=C(CN1CCOCC1)Nc1c(-c2ccccc2)c2cc(Br)ccc2[nH]c1=O`, inactive: 103%. For `COc1ccc(C(=O)c2oc3ccccc3c2NC(=O)COc2c(C)cc(C)cc2C)cc1` the value was inactive: 79%; for `O=c1oc2ccc(Br)cc2cc1-c1nc(-c2ccccc2)no1`, inactive: 76%. For `O=C(Oc1ccc2ccccc2c1)N1CCOCC1` the value was inactive: 92%. Turning to `CCC(C)NC(=O)C1CCC(CNS(=O)(=O)c2cccc3nsnc23)CC1` (stereo not drawn), the survival was inactive: 93%. The result for `COc1ccc(Br)cc1CN1CCN(C(=O)c2cccc(OC)c2OC)CC1` reads inactive: 71%; that for `O=C(CN1CCCCC1)N/N=C/c1ccc(/C=N/NC(=O)CN2CCCCC2)cc1`, inactive: 98%; that for `CCc1ccc(-c2nc3c(c(SCc4ccc(F)cc4)n2)Cc2c(CO)cnc(C)c2O3)cc1`, inactive: 60%.
